# In PubChem BioAssay AID504339 (National Center for Advancing Translational Sciences (NCATS), 2011):
# The whole screen tested about 390,000 compounds, of which about 17,000 (4.4%) were called active. The inconclusive results got no clear call from the source; some entries with a clear call stand among them for comparison. Calls follow the shape of the dose curve; as a rule, active = well fitted inhibition curve with a large enough effect; inconclusive = small, poorly fitted or top-dose-only effect; inactive = no such curve, though single readings can be large or run the other way. Potencies of inconclusive entries are doubtful fits and often do not repeat.
# Target: Lysine-specific demethylase 4A (Homo sapiens) (UniProt O75164)
# Experiment: qHTS Assay for Inhibitors of JMJD2A-Tudor Domain; also: nearly all actives have a fitted effect of over 50% in size
# Conditions: AlphaScreen JMJD2A-Tudor / H3K4me3 peptide binding; activity change, negative = inhibition: at 114 µM (top of the series)
# % is scaled to controls: 0 for no effect and ±100 for the full control effect; potency is read from the fitted curve at half-maximal effect; tags tell the direction and shape of the fitted curve.
# Sequence of UniProt O75164 (O75164 whole entry, looked up, the tested form may be a part): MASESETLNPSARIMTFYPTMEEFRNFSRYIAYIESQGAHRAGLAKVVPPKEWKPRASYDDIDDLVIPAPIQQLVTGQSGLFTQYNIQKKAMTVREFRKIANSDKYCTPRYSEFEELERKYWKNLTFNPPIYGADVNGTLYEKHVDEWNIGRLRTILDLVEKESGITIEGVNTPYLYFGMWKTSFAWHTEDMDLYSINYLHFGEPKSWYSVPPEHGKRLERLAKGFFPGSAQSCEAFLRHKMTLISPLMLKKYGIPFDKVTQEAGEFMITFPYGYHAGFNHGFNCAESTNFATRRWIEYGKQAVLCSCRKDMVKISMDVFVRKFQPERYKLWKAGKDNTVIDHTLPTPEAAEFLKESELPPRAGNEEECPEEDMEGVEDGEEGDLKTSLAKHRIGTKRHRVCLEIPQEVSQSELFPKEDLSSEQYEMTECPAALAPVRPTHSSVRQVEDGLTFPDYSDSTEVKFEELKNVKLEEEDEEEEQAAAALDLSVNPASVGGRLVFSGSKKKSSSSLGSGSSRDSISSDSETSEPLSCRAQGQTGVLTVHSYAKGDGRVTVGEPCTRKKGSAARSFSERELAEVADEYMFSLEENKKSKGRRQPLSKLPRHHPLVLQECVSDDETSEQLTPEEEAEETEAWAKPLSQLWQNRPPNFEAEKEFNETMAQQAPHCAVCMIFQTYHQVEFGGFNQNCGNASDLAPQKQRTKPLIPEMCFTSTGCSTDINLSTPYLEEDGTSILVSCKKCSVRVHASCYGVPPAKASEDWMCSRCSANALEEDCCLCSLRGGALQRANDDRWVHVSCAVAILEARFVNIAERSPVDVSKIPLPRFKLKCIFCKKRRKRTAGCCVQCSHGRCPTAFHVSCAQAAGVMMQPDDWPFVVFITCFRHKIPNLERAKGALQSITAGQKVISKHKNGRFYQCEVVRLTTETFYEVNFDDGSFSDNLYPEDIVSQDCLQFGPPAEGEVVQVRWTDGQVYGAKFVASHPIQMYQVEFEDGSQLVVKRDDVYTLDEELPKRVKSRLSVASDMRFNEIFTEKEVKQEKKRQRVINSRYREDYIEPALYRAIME
Compound,Potency,"activity change, negative = inhibition"
Cc1ccc(CNc2ccc3c(c2)ncn3C)cc1,"inconclusive: 79.4 µM [inhibitor, partial curve]",
CCN(CC(=O)Nc1cc(Cl)ccc1C)C(=O)CCOc1ccccc1C,inactive,
COc1ccc(-c2nc(CN3CCN(C(=O)c4ccco4)CC3)c(C)o2)cc1OC,inactive,
CC(=O)c1ccccc1OCCOc1ccccc1C(C)=O,inactive,
O=C(Cn1nc(-c2cccc(Cl)c2)ccc1=O)NCC1COCCO1 (stereo not drawn),inactive,
COc1ccc2[nH]cc(CCn3ccc(O)c(C/C=C/c4ccccc4)c3=O)c2c1,"inconclusive: 35.5 µM [inhibitor, partial curve]",
Nc1c(Cl)cc(-c2csc(NC(CO)c3nc4ccccc4n3CCOCCO)n2)cc1Cl (stereo not drawn),"inconclusive: 44.7 µM [inhibitor, partial curve]",
COC(=O)CN1C(=O)C(O)=C(C(C)=O)C1c1ccc([N+](=O)[O-])cc1 (stereo not drawn),active: 31.6 µM,
Cc1ccc(Nc2nc(C)c(NC(=O)c3ccc(C)cc3)c(Nc3ccc(C)cc3)n2)cc1,"inconclusive: 12.6 µM [inhibitor, partial curve]",
O=S1(=O)CCN(Cc2ccc(Cl)c(Cl)c2)CC1,inactive,
CCS(=O)(=O)N1CCc2cc(C(=O)Nc3cc(OC)c(Cl)cc3OC)ccc21,"inconclusive: 50.1 µM [inhibitor, partial curve]",
CCc1c(C(C)S(=O)(=O)c2ccccc2)[nH]c(=O)n1CC (stereo not drawn),"inconclusive: 39.8 µM [inhibitor, partial curve]",
Cc1cccc(C(=O)Nc2nnc(S(=O)(=O)N3CCCc4ccccc43)s2)c1,"inconclusive: 3.98 µM [inhibitor, full curve, poor fit]",
Cn1c(=O)n(C)c2cc(NS(=O)(=O)c3ccc(C(C)(C)C)cc3)c(NCc3ccccc3)cc21,active: 22.4 µM,
CCN(C(=O)CN1CCN(Cc2ccccc2)CC1)c1c(N)n(Cc2ccccc2)c(=O)[nH]c1=O,active: 12.6 µM,
COc1c(C=O)c(CCN(C)C(=O)c2ccc(F)cc2)cc2c1OCO2,"inconclusive: 3.55 µM [inhibitor, single point]",
O=C(Cc1ccc(NC2=NC3CS(=O)(=O)CC3S2)cc1)N1CCN(c2ccc(F)cc2)CC1 (stereo not drawn),inactive,
Cc1cccc(C(=O)NNC(=O)c2ccc(-c3ccccc3)cc2)c1,"inconclusive: 50.1 µM [inhibitor, partial curve]",
O=[N+]([O-])c1c(Nc2ccccc2O)cc(Cl)c2nonc12,"inconclusive: 56.2 µM [inhibitor, partial curve]",
CCOC(=O)COn1c(=O)c(=O)n(OC)c2ccccc21,"inconclusive: 89.1 µM [inhibitor, single point]",
CN(C)c1cc[n+](CC(=O)Nc2ccc(OC(F)F)cc2)cc1,"inconclusive: 39.8 µM [inhibitor, single point]",
CCOCCn1c(SCc2ccccc2)nc2c1c(=O)[nH]c(=O)n2C,inactive,
Cc1cc(=O)n(CC(=O)NC(C)c2ccccc2)c2c1c(C)nn2C (stereo not drawn),"inconclusive: 89.1 µM [inhibitor, partial curve, poor fit]",
CC(C)CC(c1nnnn1C1CCCC1)N1CCN(C(=O)c2ccco2)CC1 (stereo not drawn),active: 50.1 µM,
Cc1cccc(NC(=O)Nc2c(C)n(C)n(-c3ccccc3)c2=O)c1,"inconclusive: 25.1 µM [inhibitor, partial curve]",

Compound,Potency,"activity change, negative = inhibition"
CCSc1nnc(NC(=O)C2CCCCC2C(=O)O)s1 (stereo not drawn),"inconclusive: 25.1 µM [inhibitor, single point]",
CCOc1cc2[nH]c(=S)n(Cc3ccc(C(=O)NCCN(CC)CC)cc3)c(=O)c2cc1OCC,"inconclusive: 63.1 µM [inhibitor, single point]",
Cc1ccc(Nc2nc(-c3c(C)nc4ccccn34)cs2)cc1,"inconclusive: 10 µM [inhibitor, partial curve, poor fit]",
Cc1ccc(Nc2nc(N)nc(CSc3nnnn3-c3ccccc3)n2)cc1,active: 89.1 µM,
O=C(N/N=C/c1ccc(Br)s1)c1ccco1,inactive,
O=C(CSC1=NS(=O)(=O)c2cc(F)ccc2N1)Nc1ccccc1,"inconclusive: 100 µM [inhibitor, single point]",
Cc1cccc(CN2C(=O)c3ccccc3Sc3ccc(C(=O)NCc4cccs4)cc32)c1,inactive,
CCc1nnc(NC(=O)CN2C(=O)/C(=C/c3cc(OC)c(OC)c(OC)c3)SC2=S)s1,inactive,
Cc1ccc(S(=O)(=O)N(C)/N=C/c2ccc(N(C)C)cc2)cc1,active: 22.4 µM,
Cc1ccc(-c2ccc(/C=N\n3cnnc3)o2)c(Br)c1,"inconclusive: 89.1 µM [inhibitor, partial curve]",
CC(=O)Nc1ccc(C(=O)CSc2nnc(Cn3nnc4ccccc43)n2C)cc1,active: 56.2 µM,
CCCCCOC(=O)Nc1ccc(S(=O)(=O)Nn2cnnc2)cc1,active: 89.1 µM,
O=C(NCc1ccco1)c1ccc(S(=O)(=O)N2CCOCC2)cc1,"inconclusive: 56.2 µM [inhibitor, partial curve]",
Cc1nnc(Sc2cc(NCCCO)c([N+](=O)[O-])c3nonc23)s1,active: 28.2 µM,
COc1ccc(C(=O)NC(=S)N(C)Cc2ccccc2)cc1Br,inactive,
C=C(C)C(O)CC/C(C)=C/Cc1c(O)ccc(C(=O)/C=C/c2ccc(O)cc2)c1O (stereo not drawn),"inconclusive: 31.6 µM [inhibitor, full curve]",
N#C/C(=C/c1ccc(O)c([N+](=O)[O-])c1)C(=O)Nc1ccccc1,"inconclusive: 63.1 µM [inhibitor, partial curve, poor fit]",
Cc1cc(=O)oc2c3c(ccc12)OCN(Cc1ccc(Cl)cc1)C3,inactive,
CCn1nc(C)c2c(-c3ccccc3)cc(=O)n(C(C)C(=O)NCCc3ccccc3)c21 (stereo not drawn),inactive,
CCSCc1nc2ccccn2c1Br,inactive,
CCOC(=O)c1ccc(N=Cc2nc(-c3ccccc3)oc2OC(C)=O)cc1,inactive,
Cc1ccccc1OC(=O)Cn1c(C(F)(F)F)nc2ccccc21,"inconclusive: 25.1 µM [inhibitor, partial curve]",
O=c1c(C=NCC2CCCO2)c(-c2ccccc2)[nH]n1-c1ccc([N+](=O)[O-])cc1 (stereo not drawn),"inconclusive: 35.5 µM [inhibitor, partial curve]",
CCCCC(=O)Nc1nc(C)c(-c2csc(Nc3ccccc3OC)n2)s1,"inconclusive: 56.2 µM [inhibitor, partial curve]",
CCCc1cc(N2CCN(c3ccc(OC)cc3)CC2)n2cnnc2n1,inactive,

Compound,Potency,"activity change, negative = inhibition"
Oc1cc(Nc2ccccc2)cc2cccnc12,"inconclusive: 100 µM [inhibitor, partial curve]",
COc1ccc(OCc2cc(C(=O)N3CCC(OC)CC3)no2)c2ccccc12,"inconclusive: 89.1 µM [inhibitor, single point]",
O=C(OCC(=O)N1CCN(c2ccccc2)CC1)c1ccc(Cl)cc1[N+](=O)[O-],"inconclusive: 35.5 µM [inhibitor, partial curve]",
CC(c1nc2ccccc2c(=O)[nH]1)N1CCOCC1 (stereo not drawn),inactive,
CCCCOc1ccc(C(=O)NCC(=O)NC2CCCCC2)cc1,"inconclusive: 56.2 µM [inhibitor, partial curve]",
CC1CN(CCOCCOc2ccccc2-c2ccccc2)CC(C)O1 (stereo not drawn),active: 10 µM,
COc1ccc(/C=C2\SC(=S)N(NC(=O)c3csc4c3CCCC4)C2=O)cc1,"inconclusive: 35.5 µM [inhibitor, full curve, poor fit]",
O=C(CSc1ccccn1)Nc1ccc2c(c1)C(=O)c1ccccc1C2=O,active: 50.1 µM,
Fc1ccc(Nc2c(-c3ccco3)nc3ccccn23)cc1,"inconclusive: 56.2 µM [inhibitor, partial curve]",
C=CCn1c(Cc2c[nH]c3ccccc23)n[nH]c1=S,active: 8.91 µM,
CCOC(=O)C1NN=C(C(=O)c2ccc(C)cc2)C1c1ccc(C)cc1 (stereo not drawn),"inconclusive: 17.8 µM [inhibitor, full curve]",
CCN1CCN(C(=O)Nc2cccc3ccccc23)CC1,inactive,
O=C(CC(NCc1cccnc1)C(=O)O)Nc1ccc(O)cc1 (stereo not drawn),active: 25.1 µM,
Cc1cc(Cl)ccc1NNC(=O)c1cccs1,inactive,
COC(=O)CCCC1=CC2=CC(=O)C(C)(OC(=O)c3cccs3)C(=O)C2=CN1Cc1ccc2c(c1)OCO2 (stereo not drawn),"inconclusive: 56.2 µM [inhibitor, partial curve]",
COc1cccc(NC(=S)/C(=C(\[O-])c2ccc([N+](=O)[O-])cc2)[n+]2ccccc2)c1,,inactive: -17.6% [at 11.4 µM]
Cc1ccc(C2c3[nH]c4ccccc4c3CCN2C(=O)CCc2ccccc2)cc1 (stereo not drawn),"inconclusive: 28.2 µM [inhibitor, full curve, poor fit]",
C=CC1=C(C(=O)O)N2C(=O)C(NC(=O)Cc3ccccc3)C2SC1 (stereo not drawn),active: 39.8 µM,
BrC(=C\c1ccccc1)/C=N/Nc1ccc2nncn2n1,"inconclusive: 56.2 µM [inhibitor, partial curve]",
O=C(CSc1ccc2nnc(-c3cccc(F)c3)n2n1)NCC1CCCO1 (stereo not drawn),active: 31.6 µM,
CCOC(=O)c1cc(CN2CCOCC2)oc1-c1ccccc1,"inconclusive: 89.1 µM [inhibitor, single point]",
O=C(c1cccc2ccccc12)N1CCN(c2ccc([N+](=O)[O-])c(N3CCOCC3)c2)CC1,"inconclusive: 31.6 µM [inhibitor, full curve, poor fit]",
CCn1nc(NS(=O)(=O)c2ccc([N+](=O)[O-])cc2)c2cc3cc(C)ccc3nc21,"inconclusive: 56.2 µM [inhibitor, partial curve]",
